Several values for one entry are separate records, joined by “and”; a condition that tells them apart may be missing. Identical values can stand only once.
Conditions: Escherichia coli (strain K12); pH 7; 25 °C; GdnHCl; Fluorescence; phosphate 10 mM; reversible: yes

Q: With “Thioredoxin 1 wild type (sequence not shown)” as the substance, how does the denaturant m value read?
A: 3.7 kcal/mol/M and 3.6 kcal/mol/M

Q: And the “denaturant midpoint (higher = more stable)” value?
A: 2.6 M and 1.7 M

Q: And the unfolding free energy?
A: 9.6 kcal/mol and 6.2 kcal/mol
